In PubChem BioAssay (Tox21):
Where “and” joins values, the source holds several entries; their conditions need not be identical. Identical values can stand only once. Inconclusive results, whose numbers are uncertain, are shown with a selection of clear calls. Potencies beside an inconclusive call are fits to weak or partial responses and may not hold up. Calls of active or inactive are those of the source. Unless noted, calls come from the whole dose curve; as a rule, active = well fitted cell-killing curve with a large enough effect in the repeat runs; inconclusive = weak or mixed curves, or effect the other way; inactive = flat fitted curve, though single readings scatter.

Target: Estrogen receptor beta (Homo sapiens) (UniProt Q92731)
UniProt Q92731, sequence (Q92731 whole entry, looked up): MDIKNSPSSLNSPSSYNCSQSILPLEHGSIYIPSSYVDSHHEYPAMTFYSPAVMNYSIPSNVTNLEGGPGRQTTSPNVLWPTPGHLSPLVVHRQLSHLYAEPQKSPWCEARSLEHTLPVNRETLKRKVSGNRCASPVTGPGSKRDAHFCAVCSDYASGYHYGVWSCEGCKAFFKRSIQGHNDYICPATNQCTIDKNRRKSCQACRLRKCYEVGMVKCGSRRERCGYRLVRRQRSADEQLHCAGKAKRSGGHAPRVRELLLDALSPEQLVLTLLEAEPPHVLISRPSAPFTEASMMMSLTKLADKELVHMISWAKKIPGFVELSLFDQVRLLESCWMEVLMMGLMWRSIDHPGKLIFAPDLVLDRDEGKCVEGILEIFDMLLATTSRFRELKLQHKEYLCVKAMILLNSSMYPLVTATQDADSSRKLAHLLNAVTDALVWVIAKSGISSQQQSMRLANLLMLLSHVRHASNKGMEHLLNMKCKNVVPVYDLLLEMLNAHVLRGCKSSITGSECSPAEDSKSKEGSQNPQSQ
Test: qHTS assay to identify small molecule agonists of the estrogen receptor beta (ER-beta) signaling pathway (AID 1259377; active = well fitted activation curve with a large enough effect in the signal ratio in the repeat runs, not every such curve was filed as active; inconclusive = weak or mixed curves, or effect the other way; the % refers to the signal ratio)
Conditions: ER-beta-UAS-bla HEK293T, beta-lactamase FRET ratio, 16 h; activation: at 92.4 µM (top of the series) unless noted
Procedure, shortened: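 A UAS-controlled beta-lactamase reporter in ER-beta-UAS-bla HEK293T cells reports receptor activation. Compounds act for 16 hr at 37C in 2% charcoal-stripped serum, and a FRET substrate is read by fluorescence after 2 hours.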
% is set by controls: 0 for no effect and ±100 for the full control effect; potency is the fitted concentration of half-maximal effect; tags give direction and shape of the fitted curve or compound fluorescence and quenching.

| Compound | Potency |
| --- | --- |
| CC(C)C1(C)N=C(c2nc3ccccc3cc2C(=O)O)NC1=O (configuration not stated) | inconclusive: 24.5 µM [activator, partial curve, poor fit] |
| COC(=O)c1ccccc1S(=O)(=O)NC(=O)Nc1nc(C)nc(OC)n1 | inactive |
| Cc1cnc2c(C(=O)O)c(Cl)ccc2c1 | inactive |

Target: Estrogen receptor beta (Homo sapiens) (UniProt Q92731)
Test: qHTS assay to identify small molecule antagonists of the estrogen receptor beta (ER-beta) signaling pathway (AID 1259378; active = well fitted inhibition curve with a large enough effect in the signal ratio in the repeat runs, not every such curve was filed as active; inconclusive = weak or mixed curves, or effect the other way; inactive = no such curve, though single readings can be large or run the other way; the % refers to the signal ratio)
Conditions: ER-beta-UAS-bla HEK293T, beta-lactamase FRET ratio, 16 h; activity, negative = inhibition: at 92.4 µM (top of the series) unless noted
Procedure, shortened: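 Antagonist mode: compounds added to beta-lactamase reporter HEK293T ER-beta-UAS cells stimulated with E2 (1nM final), 16 hr at 37C. LiveBLAzer B/G FRET substrate, 2 hours room temperature, fluorescence read-out.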

| Compound | Potency | activity, negative = inhibition |
| --- | --- | --- |
| CC(C)(CCl)C(=O)Cl | inactive |  |
| COc1cc(CC(C)N)cc(OC)c1OC (configuration not stated) | inconclusive: 26.3 µM [activator, partial curve, poor fit] |  |
| COP(=S)(OC)Oc1ccc(Sc2ccc(OP(=S)(OC)OC)cc2)cc1 | inconclusive: 30.6 µM [rising, full curve] |  |
| C=CCOC(=O)c1ccccc1N |  | inconclusive: -40.3% |
| COc1cc(CCN)cc(OC)c1OC | inconclusive: 42 µM [activator, partial curve, poor fit] |  |
| CCSCc1ccccc1OC(=O)NC |  | inconclusive: 3.41% |
| O=C(NC(=O)c1c(F)cccc1F)Nc1ccc(Cl)cc1 |  | inconclusive: 25.6% |
| Nn1cnnc1 | inactive |  |
| CCOCN(C(=O)CCl)c1c(C)cccc1CC | inconclusive: 28.9 µM [partial curve] and active: 21.7 µM |  |
| CCNCC | inactive |  |
| CCCCN(CCCC)SN(C)C(=O)Oc1cccc2c1OC(C)(C)C2 |  | inconclusive: 21.8% and inconclusive: -56.5% |
| O=C(NC(=O)c1c(F)cccc1F)Nc1cc(Cl)c(Oc2ncc(C(F)(F)F)cc2Cl)c(Cl)c1 |  | inconclusive: -21.2% |
| CC1COC(Cn2cncn2)(c2ccc(Oc3ccc(Cl)cc3)cc2Cl)O1 (configuration not stated) | active: 27.3 µM |  |
| CCCCN(CC)C(=O)SCCC | inactive |  |
| NS(=O)(=O)C(F)(F)C(F)(F)C(F)(F)C(F)(F)C(F)(F)C(F)(F)C(F)(F)C(F)(F)F |  | inconclusive: -23.8% |
| CCOc1cc(Oc2ccc(C(F)(F)F)cc2Cl)ccc1[N+](=O)[O-] | inactive |  |
| CCOC(=O)C1(c2ccccc2)CCN(CCC(C#N)(c2ccccc2)c2ccccc2)CC1 | inconclusive: 4.73 µM [inhibitor] |  |
| CCC(CC)Nc1c([N+](=O)[O-])cc(C)c(C)c1[N+](=O)[O-] | inconclusive: 12.4 µM [inhibitor, partial curve] | inconclusive: -29.7% |

| Compound | Potency | activity, negative = inhibition |
| --- | --- | --- |
| Nc1ccc(Cl)c(Cl)c1 |  | inconclusive: -18% |
| CC[C@@H](CO)NC(=O)[C@@H]1C=C2c3cccc4c3c(cn4C)C[C@H]2N(C)C1 | inactive |  |
| O=[Se]=O | inactive |  |
| CSC(=O)c1c(C(F)F)nc(C(F)(F)F)c(C(=O)SC)c1CC(C)C | inconclusive: 68.2 µM [inhibitor, single point] |  |
| CCCCCOC(=O)c1ccccc1C(=O)OCCCCC |  | inconclusive: -25.3% |
| O=[N+]([O-])c1ccc(Oc2ccc(C(F)(F)F)cc2[N+](=O)[O-])cc1 | inactive |  |
| CC1COC2(c3ccccc3Cl)c3cc(Cl)ccc3NC(=O)CN12 (configuration not stated) | active: 26.6 µM |  |
| CC1CN1 (configuration not stated) | inactive |  |
| CCCC(Cn1cncn1)c1ccc(Cl)cc1Cl (configuration not stated) | inconclusive: 30.6 µM [inhibitor, partial curve] |  |
| CCCCN(CCCC)N=O |  | inconclusive: 27.7% and inconclusive: 2.88% |
| CSC1=N[C@@](C)(c2ccccc2)C(=O)N1Nc1ccccc1 | active: 27.3 µM |  |
| CC(C)(OOC(C)(C)c1ccccc1)c1ccccc1 | inconclusive: 38 µM [rising, partial curve, poor fit] | inconclusive: -40.3% |
| O=[N+]([O-])C(Br)Br |  | inconclusive: 7.39% |
| NNc1ccccc1 | inconclusive: 1.52 µM [inhibitor, full curve] and inconclusive: 1.72 µM [inhibitor, full curve] | inconclusive: -25.7% and inconclusive: -32.3% |
| O=C(O)CCCOc1ccc(Cl)cc1Cl | inconclusive: 9.86 µM [fluorescent, full curve] |  |
| NCC(CC(=O)O)c1ccc(Cl)cc1 (configuration not stated) |  | inactive: 0.814% [at 0.349 µM] |
| C=CCN1CC[C@]23c4c5ccc(O)c4O[C@H]2C(=O)CC[C@@]3(O)[C@H]1C5 |  | inconclusive: 9.53% [at 42.5 µM] |

Tested on: not listed separately
Test: qHTS assay to identify small molecule agonists of the androgen receptor (AR) signaling pathway in the presence of an antagonist - cell viability counter screen (AID 1259379); note: nearly all actives have a fitted effect of over 25% in size
Conditions: MDA-kb2 viability, CellTiter-Fluor, 16 h; series mostly up to 92.4 µM
Procedure, shortened: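 MDA-kb2 cells (MMTV-luciferase, AR/GR), 3,000/well, 5 h attachment, then 3.0 µM nilutamide (final) and compounds at 15 concentrations. Viability by CellTiter-Fluor fluorescence after 16 h at 37 °C, 0% CO2, in the reporter wells.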

| Compound | Potency |
| --- | --- |
| COP(=S)(OC)Oc1ccc(Sc2ccc(OP(=S)(OC)OC)cc2)cc1 | inconclusive: 68.6 µM [cytotoxic, single point] |
| Nn1cnnc1 | inactive |
| CCOCN(C(=O)CCl)c1c(C)cccc1CC | inconclusive: 57.7 µM [cytotoxic] and inconclusive: 68.6 µM [cytotoxic, partial curve, poor fit] |
| O=[Se]=O | active: 9.62 µM |
| CSC1=N[C@@](C)(c2ccccc2)C(=O)N1Nc1ccccc1 | active: 30.6 µM |
| O=[N+]([O-])C(Br)Br | inconclusive: 68.7 µM [cytotoxic, single point] |
